Target: the molecule itself
Assay: SEC-MALS

B1: GFP-EB3 with 6xHIS tag, purified full-length EB3 fusion (natural protein)
chain: not shown
stoichiometry N: 2

— paper PMC2686402 (The Journal of Cell Biology, 2009)
